# Patent US20260137703A1, “2-AMINO-PYRIDO[2,3-D]PYRIMIDIN-7(8H)-ONE AND 7-AMINO-1-PYRIMIDO[4,5-D]PYRIMIDIN-2(1 H)-ONE DERIVATIVES AS EGFR INHIBITORS FOR THE TREATMENT OF CANCER” (Cancer Research Technology Limited, priority 2022, published 2026)
# Biological target: CtermHisTag-mEGFR Triple Mutant (R797S, L858R, T790M) (Homo sapiens, UniProt P00533, C797S/L858R/T790M)
# Test: TR-FRET probe displacement, EGFR triple mutant
# Details: 1.25 nM EGFR, 100 nM probe, 30 mins room temperature
row,IC50 [nM],SMILES
1,20 to 100,"C#Cc1cc(=O)n(C)c2nc(Nc3ccc(N(C)CCN(C)C)cc3)ncc12 [Example 43, 2-[(4-{[2-(Dimethylamino)ethyl](methyl)amino}phenyl)amino]-5-ethynyl-8-methylpyrido[2,3-d]pyrimidin-7-one]"
2,20 to 100,"C#Cc1cc(=O)n(C)c2nc(Nc3cc(-c4cnn(C)c4)c(N4CCOCC4)cc3OC)ncc12 [Example 44, 5-Ethynyl-2-{[2-methoxy-5-(1-methylpyrazol-4-yl)-4-(morpholin-4-yl)phenyl]amino}-8-methylpyrido[2,3-d]pyrimidin-7-one]"
3,20 to 100,"C#Cc1cc(=O)n(C)c2nc(Nc3ccc(N4CCN(C)CC4)cc3)ncc12 [Example 45, 5-Ethynyl-8-methyl-2-{[4-(4-methylpiperazin-1-yl)phenyl]amino}pyrido[2,3-d]pyrimidin-7-one]"
4,20 to 100,"C#Cc1cc(=O)n(C)c2nc(Nc3ccc(OCCN(C)C)cc3)ncc12 [Example 46, 2-({4-[2-(Dimethylamino)ethoxy]phenyl}amino)-5-ethynyl-8-methylpyrido[2,3-d]pyrimidin-7-one]"
5,20 to 100,"C#Cc1cc(=O)n(C)c2nc(Nc3ccc(N4CCN(C)CC4)cc3OC)ncc12 [Example 49, 5-Ethynyl-2-{[2-methoxy-4-(4-methylpiperazin-1-yl)phenyl]amino}-8-methylpyrido[2,3-d]pyrimidin-7-one]"
6,20 to 100,"C#Cc1cc(=O)n(C)c2nc(Nc3ccc(N4CCN(C)CC4)c(NC(C)=O)c3)ncc12 [Example 50, N-[5-({5-Ethynyl-8-methyl-7-oxopyrido[2,3-d]pyrimidin-2-yl}amino)-2-(4-methylpiperazin-1-yl)phenyl]acetamide]"
7,< 20,"C#Cc1cc(=O)n(C)c2nc(Nc3ccc(N4CCN(C)CC4)c(NC(=O)CC)c3)ncc12 [Example 51, N-[5-({5-Ethynyl-8-methyl-7-oxopyrido[2,3-d]pyrimidin-2-yl}amino)-2-(4-methylpiperazin-1-yl)phenyl]propanamide]"
8,100 to 1000,"C#Cc1cc(=O)n(-c2cccc(NS(=O)(=O)C3CC3)c2)c2nc(Nc3ccccc3OC)ncc12 [Example 58, N-(3-(5-Ethynyl-2-((2-methoxyphenyl)amino)-7-oxopyrido[2,3-d]pyrimidin-8(7H)-yl)phenyl)cyclopropanesulfonamide]"
9,20 to 100,"C#Cc1cc(=O)n(-c2ccc(NC(C)=O)cc2)c2nc(Nc3ccccc3OC)ncc12 [Example 62, N-(4-(5-Ethynyl-2-((2-methoxyphenyl)amino)-7-oxopyrido[2,3-d]pyrimidin-8(7H)-yl)phenyl)acetamide]"
10,20 to 100,"C#Cc1cc(=O)n(-c2ccc(NS(C)(=O)=O)cc2)c2nc(Nc3ccccc3OC)ncc12 [Example 63, N-(4-(5-Ethynyl-2-((2-methoxyphenyl)amino)-7-oxopyrido[2,3-d]pyrimidin-7(8H)-yl)phenyl)methanesulfonamide]"
11,20 to 100,"C#Cc1cc(=O)n(-c2ccc(NC(=O)C3CC3)cc2)c2nc(Nc3ccccc3OC)ncc12 [Example 66, N-(4-(5-Ethynyl-2-((2-methoxyphenyl)amino)-7-oxopyrido[2,3-d]pyrimidin-8(7H)-yl)phenyl)cyclopropanecarboxamide]"
12,< 20,"C#Cc1cc(=O)n(CC2CCCC2)c2nc(Nc3ccc(N4CCN(C)CC4)cc3)ncc12 [Example 67, 8-(Cyclopentylmethyl)-5-ethynyl-2-((4-(4-methylpiperazin-1-yl)phenyl)amino)pyrido[2,3-d]pyrimidin-7(8H)-one]"
13,< 20,"C#Cc1cc(=O)n(C2CCCCC2)c2nc(Nc3ccc(N4CCN(C)CC4)cc3)ncc12 [Example 68, 8-Cyclohexyl-5-ethynyl-2-((4-(4-methylpiperazin-1-yl)phenyl)amino)pyrido[2,3-d]pyrimidin-7(8H)-one]"
14,< 20,"C#Cc1cc(=O)n(C2CCOCC2)c2nc(Nc3ccc(N4CCN(C)CC4)cc3)ncc12 [Example 69, 5-Ethynyl-2-((4-(4-methylpiperazin-1-yl)phenyl)amino)-8-(tetrahydro-2H-pyran-4-yl)pyrido[2,3-d]pyrimidin-7(8H)-one]"
15,< 20,"C#Cc1cc(=O)n(CC2CCOC2)c2nc(Nc3ccc(N4CCN(C)CC4)cc3)ncc12 (stereo not drawn) [Example 70, 5-Ethynyl-2-((4-(4-methylpiperazin-1-yl)phenyl)amino)-8-((tetrahydrofuran-3-yl)methyl)pyrido[2,3-d]pyrimidin-7(8H)-one]"
16,100 to 1000,"C#Cc1cc(=O)n(C[C@@H]2CCC(=O)N2)c2nc(Nc3ccc(N4CCN(C)CC4)cc3)ncc12 [Example 71, (S)-5-Ethynyl-2-((4-(4-methylpiperazin-1-yl)phenyl)amino)-8-((5-oxopyrrolidin-2-yl)methyl)pyrido[2,3-d]pyrimidin-7(8H)-one]"
17,20 to 100,"C#Cc1cc(=O)n(CC2CCCO2)c2nc(Nc3ccc(N4CCN(C)CC4)cc3)ncc12 (stereo not drawn) [Example 72, 5-Ethynyl-2-((4-(4-methylpiperazin-1-yl)phenyl)amino)-8-((tetrahydrofuran-2-yl)methyl)pyrido[2,3-d]pyrimidin-7(8H)-one]"
18,20 to 100,"C#Cc1cc(=O)n(C2CCCC2O)c2nc(Nc3ccc(N4CCN(C)CC4)cc3)ncc12 (stereo not drawn) [Example 73, 5-Ethynyl-8-(2-hydroxycyclopentyl)-2-((4-(4-methylpiperazin-1-yl)phenyl)amino)pyrido[2,3-d]pyrimidin-7(8H)-one]"
19,100 to 1000,"C#Cc1cc(=O)n(C2CCCC2)c2nc(Nc3ccccc3OC)ncc12 [Example 74, 8-Cyclopentyl-5-ethynyl-2-((2-methoxyphenyl)amino)pyrido[2,3-d]pyrimidin-7(8H)-one]"
20,20 to 100,"C#Cc1cc(=O)n(C(C)C)c2nc(Nc3ccc(N4CCN(C)CC4)cc3)ncc12 [Example 76, 5-Ethynyl-8-isopropyl-2-{[4-(4-methylpiperazin-1-yl)phenyl]amino}pyrido[2,3-d]pyrimidin-7-one]"

# Continued, compound first:
row,SMILES,IC50 [nM]
1,"C#Cc1cc(=O)n(-c2ccccc2)c2nc(Nc3ccccc3CO)ncc12 [Example 41, 5-Ethynyl-2-{[2-(hydroxymethyl)phenyl]amino}-8-phenylpyrido[2,3-d]pyrimidin-7-one]",100 to 1000
2,"C#Cc1cc(=O)n(C)c2nc(Nc3ccc(N(C)CCN(C)C)cc3OC)ncc12 [Example 42, 2-[(4-{[2-(Dimethylamino)ethyl](methyl)amino}-2-methoxyphenyl)amino]-5-ethynyl-8-methylpyrido[2,3-d]pyrimidin-7-one]",100 to 1000
3,"C#Cc1cc(=O)n(C)c2nc(Nc3ccc(N(C)CCN(C)C)c(-c4cnn(C)c4)c3)ncc12 [Example 47, 2-[(4-{[2-(Dimethylamino)ethyl](methyl)amino}-3-(1-methylpyrazol-4-yl)phenyl)amino]-5-ethynyl-8-methylpyrido[2,3-d]pyrimidin-7-one]",20 to 100
4,"C#Cc1cc(=O)n(C)c2nc(Nc3ccccc3OC)ncc12 [Example 48, 5-Ethynyl-2-[(2-methoxyphenyl)amino]-8-methylpyrido[2,3-d]pyrimidin-7-one]",100 to 1000
5,"C#Cc1cc(=O)n(C)c2nc(Nc3cccc(N(C)CCN(C)C)c3)ncc12 [Example 52, 2-[(3-{[2-(Dimethylamino)ethyl](methyl)amino}phenyl)amino]-5-ethynyl-8-methylpyrido[2,3-d]pyrimidin-7-one]",20 to 100
6,"C#Cc1cc(=O)n(C)c2nc(Nc3cccc(N(C)C(=O)CN(C)C)c3)ncc12 [Example 53, 2-(Dimethylamino)-N-[3-({5-ethynyl-8-methyl-7-oxopyrido[2,3-d]pyrimidin-2-yl}amino)phenyl]-N-methylacetamide]",20 to 100
7,"C#Cc1cc(=O)n(-c2cccc([N+](=O)[O-])c2)c2nc(Nc3ccccc3OC)ncc12 [Example 54, 5-Ethynyl-2-((2-methoxyphenyl)amino)-8-(3-nitrophenyl)pyrido[2,3-d]pyrimidin-7(8H)-one]",100 to 1000
8,"C#Cc1cc(=O)n(-c2cccc(N)c2)c2nc(Nc3ccccc3OC)ncc12 [Example 55, 8-(3-Aminophenyl)-5-ethynyl-2-((2-methoxyphenyl)amino)pyrido[2,3-d]pyrimidin-7(8H)-one]",20 to 100
9,"C#Cc1cc(=O)n(-c2cccc(NC(C)=O)c2)c2nc(Nc3ccccc3OC)ncc12 [Example 56, N-(3-(5-Ethynyl-2-((2-methoxyphenyl)amino)-7-oxopyrido[2,3-d]pyrimidin-8(7H)-yl)phenyl)acetamide]",20 to 100
10,"C#Cc1cc(=O)n(-c2cccc(NS(C)(=O)=O)c2)c2nc(Nc3ccccc3OC)ncc12 [Example 57, N-(3-(5-Ethynyl-2-((2-methoxyphenyl)amino)-7-oxopyrido[2,3-d]pyrimidin-8(7H)-yl)phenyl)methanesulfonamide]",20 to 100
11,"C#Cc1cc(=O)n(-c2cccc(NC(=O)COC(C)=O)c2)c2nc(Nc3ccccc3OC)ncc12 [Example 59, 2-((3-(5-Ethynyl-2-((2-methoxyphenyl)amino)-7-oxopyrido[2,3-d]pyrimidin-8(7H)-yl)phenyl)amino)-2-oxoethyl acetate]",20 to 100
12,"C#Cc1cc(=O)n(-c2ccc([N+](=O)[O-])cc2)c2nc(Nc3ccccc3OC)ncc12 [Example 60, 5-Ethynyl-2-((2-methoxyphenyl)amino)-8-(4-nitrophenyl)pyrido[2,3-d]pyrimidin-7(8H)-one]",100 to 1000
13,"C#Cc1cc(=O)n(-c2ccc(N)cc2)c2nc(Nc3ccccc3OC)ncc12 [Example 61, 8-(4-Aminophenyl)-5-ethynyl-2-((2-methoxyphenyl)amino)pyrido[2,3-d]pyrimidin-7(8H)-one]",20 to 100
14,"C#Cc1cc(=O)n(-c2ccc(NC(=O)COC(C)=O)cc2)c2nc(Nc3ccccc3OC)ncc12 [Example 64, 2-((4-(5-Ethynyl-2-((2-methoxyphenyl)amino)-7-oxopyrido[2,3-d]pyrimidin-8(7H)-yl)phenyl)amino)-2-oxoethyl acetate]",20 to 100
15,"C#Cc1cc(=O)n(-c2ccc(NC(=O)CC)cc2)c2nc(Nc3ccccc3OC)ncc12 [Example 65, N-(4-(5-Ethynyl-2-((2-methoxyphenyl)amino)-7-oxopyrido[2,3-d]pyrimidin-7(8H)-yl)phenyl)propionamide]",20 to 100
16,"C#Cc1cc(=O)n(-c2ccc(OC)cc2OC)c2nc(Nc3ccccc3OC)ncc12 [Example 75, 8-(2,4-Dimethoxyphenyl)-5-ethynyl-2-[(2-methoxyphenyl)amino]pyrido[2,3-d]pyrimidin-7-one]",< 20
